Holding throughout (experiment): Primary Screen for Target Class Profiling of Small Molecule Inhibitors of Methyltransferases
Assay [1] deals with Glycine N-methyltransferase (Homo sapiens) (UniProt Q14749). The following applies: purified enzyme, MTase-Glo SAH luminescence; measured here: GNMT inhibition; at 40 µM; stronger effect = lower value. An excerpt: (§1) PI: Matthew D. Hall Ph.D. and Quinlin M. Hanson Ph.D.
(§2) National Center for Advancing Translational Sciences (NCATS)
(§3) National Institute of Health (NIH), Rockville, MD
(§4) Target class profiling (TCP) is a chemical biology approach amenable to investigating understudied biological targets. TCP is achieved by developing a generalizable assay platform and applying it to screen a curated set of compound libraries against representative members of a target class. Small molecule methyltransferases (SMMTase) are a subclass of methyltransferase that act on metabolites to modulate signaling pathways, metabolize xenobiotics, or balance the available methyl pool. We screened four curated libraries totaling 27,574 unique compounds against the SMMTases nicotinamide N-methyltransferase (NNMT), phenylethanolamine N-methyltransferase (PNMT), histamine N-methyltransferase (HNMT), glycine N-methyltransferase (GNMT), catechol O-methyltransferase (COMT), and guanidinoacetate N-methyltransferase (GAMT). The data generated by this TCP can be leveraged for informed tool molecule development. For example, in the associated publication we identified a chemotype of HNMT-selective inhibitors. Additionally, we identified a putative SMMTase-selective inhibitor with potential as a tool molecule for studying broader methyltransferase biology.
(§5) High-through put screening assays were developed at the National Center for Advancing Translational Science (NCATS) for the enzymes NNMT, PNMT, HNMT, GNMT, COMT, and GAMT. Enzymatic activity was measured as a function of SAM cofactor conversion using the MTase Glo kit (Promega) for all enzymes. All assays were performed in 1536-well format with substrates and SAM concentrations at KM values. Enzyme concentration and assay timing were optimized for 10-20% SAM conversion. Initial screening of 27,574 compounds was done as single-point assays using the highest compound concentration (40 uM). […] These compounds were replated in 11-point dose response and assayed against NNMT, PNMT, HNMT, GNMT, COMT, GAMT, and a counter-assay. The IC50 and efficacy (maximal response) values were determined for each dose-response curve. These values are also accounted for in the area under the curve (AUC) values.
(§6) PROTOCOL TABLE (as described by Inglese J, Shamu CE and Guy RK. 2007)
(§7) SEQUENCE No. (e.g., 1, 2, 3, etc.); […] (e.g., Cells, Incubation, Reagent, etc.); VALUE; DESCRIPTION.
(§8) 1; Reagent; 2 uL; SMMTase Enzyme (2x) in reaction buffer, columns 1- 48.
(§9) 2; Reagent; 1 uL; SAM (4x) in reaction buffer, columns 1-48.
(§10) 3; Controls; 23 nL; DMSO in column 4; sinefungin in DMSO (0 uM - 40 uM) in 7-point 1:2 dilution series (n = 2) in column 2.
(§11) 4; Compounds; 23 nL; Columns 5-48.
(§12) 5; Reagent; 1 uL; Substrate (4x) in reaction buffer, columns 2-48.
(§13) 6; Time; 20-30 min; Incubation.
(§14) 7; Reagent; 1 uL; MTase-Glo reagent (5X), columns 1-48.
(§15) 8; Time; 30 min; Incubation.
(§16) 9; Reagent; 5 uL; MTase-Glo Detection reagent, columns 1-48.
(§17) 10; Time; 30 min; Incubation, luminescence evolution.
(§18) 11; Detection; Luminescence; ViewLux uHTS Microplate Imager (PerkinElmer).
(§19) NOTES (numbers refer to Sequence numbers above)
(§20) 1, 2, 5. White Medium Binding Greiner 1536-well plates (Cat #789175-F, Greiner Bio-One, Monroe, NC); Reaction buffer: 50 mM Tris, pH 8.0, 3 mM MgCl2, 1 mM EDTA, 50 mM NaCl, 1 mM DTT, and 0.1 mg/mL BSA. Evaporation was prevented by covering assay plates with metal lids containing holes to allow gas diffusion.
(§21) 1. Six SMMTase were profiled: HNMT, GNMT, PNMT, COMT, NNMT, GAMT
(§22) 5. The corresponding substrate was used for each enzyme: HNMT - 5.3 uM Histamine; GNMT - >500 uM Glycine; PNMT - 16.2 uM Norephinephrine; COMT - 13.7 uM Norephinephrine; NNMT - 3.8 uM Nicotinamide; GAMT - 2.5 uM Guanidinoacetate.6, 8, 10. Room temperature
(§23) 6. Final reaction conditions: 10 nM COMT, 5 uM SAM, 15 uM norepinephrine, 50 mM Tris, pH 8.0, 3 mM MgCl2, 1 mM EDTA, 50 mM NaCl, 1 mM DTT, and 0.1 mg/mL BSA; refer to tables 2 and S1 for specific timing.
8. […]

Assay [2] has as its target Guanidinoacetate N-methyltransferase (Homo sapiens) (UniProt Q14353). Particulars: purified enzyme, MTase-Glo SAH luminescence; measured here: GAMT inhibition; at 40 µM; stronger effect = lower value.
Source text: as §1, §2, §3, §4, §5, §6, §7, §8, §9, §10, §11, §12, §13, §14, §15, §16, §17, §18, §19, §20, §21, §22, §23
8. […]

Assay [3] addresses Histamine N-methyltransferase (Homo sapiens) (UniProt P50135). Particulars: purified enzyme, MTase-Glo SAH luminescence; measured here: HNMT inhibition; at 40 µM; stronger effect = lower value.
Source text: as §1, §2, §3, §4, §5, §6, §7, §8, §9, §10, §11, §12, §13, §14, §15, §16, §17, §18, §19, §20, §21, §22, §23
8. […]

Assay [4] deals with Nicotinamide N-methyltransferase (Homo sapiens) (UniProt P40261). The following applies: purified enzyme, MTase-Glo SAH luminescence; measured here: NNMT inhibition; at 40 µM; stronger effect = lower value.
Source text: as §1, §2, §3, §4, §5, §6, §7, §8, §9, §10, §11, §12, §13, §14, §15, §16, §17, §18, §19, §20, §21, §22, §23
8. […]

In assay [5] the target is Phenylethanolamine N-methyltransferase (Homo sapiens) (UniProt P11086). The following applies: purified enzyme, MTase-Glo SAH luminescence; measured here: PNMT inhibition; at 40 µM; stronger effect = lower value.
Source text: as §1, §2, §3, §4, §5, §6, §7, §8, §9, §10, §11, §12, §13, §14, §15, §16, §17, §18, §19, §20, §21, §22, §23
8. […]

This is one part of the list. The main result of the screen is listed elsewhere. These columns were measured beside it and carry no call.
% is scaled to controls: 0 for no effect and ±100 for the full control effect.

On to `CC1(C(=O)NCc2ccc(Cl)cc2)Cn2c(nc3ccccc32)C(=O)N1C1CC1` (stereo not given), for which the activity change, negative = inhibition is -8.46% in assay [1]; 1.26% in assay [2]; -0.131% in assay [3]; 0.519% in assay [4]; -1.69% in assay [5].
For `CN(Cc1cccnc1)Cc1ccccc1C(F)(F)F`, the activity change, negative = inhibition in assay [1] is -1.85%; in assay [2], -4.46%; in assay [3], -0.955%; in assay [4], -5.8%; in assay [5], -11.1%.
On to `CCCN1C(=O)c2cc(C(=O)NCc3ccc(OCC)c(OC)c3)nn2CC1(C)C(=O)NC1CCCC1` (stereo not given), for which the activity change, negative = inhibition is 2.63% in assay [1]; 0% in assay [2]; 5.73% in assay [3]; 5.91% in assay [4]; 3.8% in assay [5].
Consider `CC1CCCCN1CCNC(=O)Cn1ccc2cc(S(=O)(=O)N3CCCCC3)ccc21` (stereo not given), for which the activity change, negative = inhibition in assay [1] is -1.47%; in assay [2], -0.314%; in assay [3], -33.2%; in assay [4], -1.57%; in assay [5], -4.03%.
Regarding `COc1ccc(C(=O)Nc2ccc3c(c2)C(=O)N(C)C2=NCCN23)cc1`, the activity change, negative = inhibition was -1.44% in assay [1]; 0% in assay [2]; 4.86% in assay [3]; -0.582% in assay [4]; 2.7% in assay [5].
Consider `COCCn1ccc2c(C3=CCOCC3)nc(-c3cccc4[nH]ccc34)cc21`, for which the activity change, negative = inhibition in assay [1] was -68.1%; in assay [2], -52.1%; in assay [3] it was -27.4%; in assay [4], -38.9%; in assay [5] it was -86.5%.
On to `CN1CC(=O)N(CC(=O)N[C@@H]2COCC[C@@H]2OCc2cscn2)C1=O`, for which the activity change, negative = inhibition in assay [1] was -4.38%; in assay [2], -8.84%; in assay [3], -3.06%; in assay [4], -6.76%; in assay [5], -6.52%.
On to `CC(C)=CC1C[C@](C)(O)[C@@H]2[C@H]3CCC4[C@@]5(C)CC[C@H](O[C@@H]6OC[C@H](O)[C@H](O[C@@H]7O[C@H](CO[C@@H]8O[C@H](CO)[C@@H](O)[C@H](O)[C@H]8O)[C@@H](O)[C@H](O)[C@H]7O)[C@H]6O[C@@H]6O[C@@H](C)[C@H](O)[C@@H](O)[C@H]6O)C(C)(C)[C@@H]5CC[C@@]4(C)[C@@]34CO[C@@]2(C4)O1` (stereo not given in full), for which the activity change, negative = inhibition is -0.09% in assay [1]; 1.85% in assay [2]; 7.57% in assay [3]; -5.98% in assay [4]; 8.82% in assay [5].
Consider `CC(C)=CC(=O)N[C@H]1C[C@@H](C(=O)N[C@H](Cc2ccccc2)C(N)=O)N(C(=O)C=C(C)C)C1`, for which the activity change, negative = inhibition in assay [1] was -3.39%; in assay [2] it was -8.02%; in assay [3] it was -2.62%; in assay [4], -10.2%; in assay [5] it was -3.46%.
The like results for `O=C(O)c1ccc(C2Nc3c(F)cc(F)cc3C3C=CCC32)cc1` (stereo not given) were, in that order, -12.9%, 0.782%, 3.69%, -2.51% and -6.08%.
Turning to `O=[S+]1([O-])NC2(CCCN(Cc3ccsc3)C2)CNc2ccccc21` (stereo not given), the activity change, negative = inhibition in assay [1] is -39.1%; in assay [2] it was -6.97%; in assay [3], -3.39%; in assay [4], -12.6%; in assay [5], -9.76%.
For `COc1ccc(OC)c(S(=O)(=O)N2CC[C@@H]3COCCN(Cc4ccccc4)[C@@H]3C2)c1` the same measures were -16.4%, -4.79%, -11.1%, -11.5% and -11.4%.
`Cc1cc2c(cc3n2CC(C)(C(=O)NC2CCCCCC2)N(CCN2CCOCC2)C3=O)o1` (stereo not given): the activity change, negative = inhibition was 3.78% in assay [1]; 0% in assay [2]; 10.6% in assay [3]; -4.91% in assay [4]; 4.05% in assay [5].
As for `Fc1ccc(CNc2nc3c(-c4ccc(F)cc4)nnn3c3ccccc23)cc1`, the activity change, negative = inhibition was -0.95% in assay [1]; -0.462% in assay [2]; 0.521% in assay [3]; -4.2% in assay [4]; -1.76% in assay [5].

Values taken from PubChem BioAssay AID1745853 (National Center for Advancing Translational Sciences (NCATS), 2022).
